Common to all, as to test: co-IP; anti-GFP immunoprecipitation from late-ovary extract in the presence of RNase; immunoblot with anti-dFMRP, anti-Glo or anti-GFP
(In general: A western blot detects proteins with antibodies after separation by electrophoresis.)

By UniProt entry, the sequences of proteins in these tests, tags left out.
UniProt Q9NFU0: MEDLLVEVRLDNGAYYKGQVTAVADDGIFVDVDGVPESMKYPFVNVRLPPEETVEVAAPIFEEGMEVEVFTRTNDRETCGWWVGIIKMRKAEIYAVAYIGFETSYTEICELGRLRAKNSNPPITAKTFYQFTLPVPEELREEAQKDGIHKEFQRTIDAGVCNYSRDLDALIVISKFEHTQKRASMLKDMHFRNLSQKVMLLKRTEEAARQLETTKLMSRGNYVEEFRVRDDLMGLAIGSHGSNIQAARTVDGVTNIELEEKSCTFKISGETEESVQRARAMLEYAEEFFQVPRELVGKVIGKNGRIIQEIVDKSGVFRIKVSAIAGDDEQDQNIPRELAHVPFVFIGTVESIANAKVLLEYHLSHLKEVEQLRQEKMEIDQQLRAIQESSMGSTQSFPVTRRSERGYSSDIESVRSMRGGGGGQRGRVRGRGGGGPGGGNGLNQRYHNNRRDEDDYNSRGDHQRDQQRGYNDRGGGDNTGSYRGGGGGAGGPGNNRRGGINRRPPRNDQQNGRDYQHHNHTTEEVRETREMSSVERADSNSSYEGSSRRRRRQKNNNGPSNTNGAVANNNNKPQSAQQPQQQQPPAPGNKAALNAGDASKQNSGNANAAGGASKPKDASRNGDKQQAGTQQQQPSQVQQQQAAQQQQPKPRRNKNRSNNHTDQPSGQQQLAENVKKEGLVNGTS

For assay [1], the target named is T1, GFP-GloΔqRRM1 (Drosophila) (UniProt Q9VGH5).
T1 sequence: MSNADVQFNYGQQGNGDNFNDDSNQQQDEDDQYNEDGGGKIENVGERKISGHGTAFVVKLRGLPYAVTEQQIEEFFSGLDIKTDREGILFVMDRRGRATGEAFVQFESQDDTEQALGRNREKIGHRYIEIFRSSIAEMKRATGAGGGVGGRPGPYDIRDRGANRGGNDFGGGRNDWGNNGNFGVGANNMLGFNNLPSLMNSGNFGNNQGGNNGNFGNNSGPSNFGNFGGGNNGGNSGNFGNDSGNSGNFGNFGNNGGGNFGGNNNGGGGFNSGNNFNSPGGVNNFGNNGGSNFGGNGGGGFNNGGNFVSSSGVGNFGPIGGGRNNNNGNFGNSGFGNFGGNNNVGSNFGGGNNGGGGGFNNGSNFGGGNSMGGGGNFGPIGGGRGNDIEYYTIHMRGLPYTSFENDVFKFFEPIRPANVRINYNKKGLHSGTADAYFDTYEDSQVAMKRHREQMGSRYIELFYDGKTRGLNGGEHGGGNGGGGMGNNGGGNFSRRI

The target of assay [2] is T2, GFP-GloΔqRRM3 (Drosophila) (UniProt Q9VGH5).
T2 sequence: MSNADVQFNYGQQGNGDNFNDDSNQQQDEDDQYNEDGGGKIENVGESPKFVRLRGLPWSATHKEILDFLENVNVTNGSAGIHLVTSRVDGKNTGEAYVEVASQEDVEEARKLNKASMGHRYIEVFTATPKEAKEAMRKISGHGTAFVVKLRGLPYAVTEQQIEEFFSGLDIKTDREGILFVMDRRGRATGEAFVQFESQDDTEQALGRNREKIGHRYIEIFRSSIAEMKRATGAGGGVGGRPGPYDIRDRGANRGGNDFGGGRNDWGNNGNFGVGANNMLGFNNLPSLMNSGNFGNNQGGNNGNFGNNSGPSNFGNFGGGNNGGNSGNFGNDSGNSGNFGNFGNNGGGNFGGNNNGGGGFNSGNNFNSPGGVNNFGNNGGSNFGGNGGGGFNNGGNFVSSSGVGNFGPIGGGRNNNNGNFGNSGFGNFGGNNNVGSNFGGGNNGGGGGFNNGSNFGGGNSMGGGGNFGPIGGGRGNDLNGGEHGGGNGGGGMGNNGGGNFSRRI

Assay [3] addresses T3, GFP-GloΔqRRM2 (Drosophila) (UniProt Q9VGH5).
T3 sequence: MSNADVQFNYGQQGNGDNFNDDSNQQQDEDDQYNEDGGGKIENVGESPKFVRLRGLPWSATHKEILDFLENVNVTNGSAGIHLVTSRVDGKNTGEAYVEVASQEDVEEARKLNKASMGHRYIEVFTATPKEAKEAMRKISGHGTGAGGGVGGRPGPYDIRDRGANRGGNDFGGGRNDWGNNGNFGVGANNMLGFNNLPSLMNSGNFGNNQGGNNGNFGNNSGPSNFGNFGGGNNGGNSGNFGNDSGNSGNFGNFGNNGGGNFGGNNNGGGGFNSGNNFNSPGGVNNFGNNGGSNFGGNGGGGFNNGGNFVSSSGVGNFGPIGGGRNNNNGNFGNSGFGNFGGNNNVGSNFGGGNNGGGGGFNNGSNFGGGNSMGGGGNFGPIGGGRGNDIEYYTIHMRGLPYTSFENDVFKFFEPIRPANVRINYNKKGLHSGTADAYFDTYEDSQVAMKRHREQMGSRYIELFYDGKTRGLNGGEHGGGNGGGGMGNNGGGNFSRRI

The target of assay [4] is T4, GFP-tagged Glorund (GFP-Glo) (Drosophila) (UniProt Q9VGH5).
T4 sequence: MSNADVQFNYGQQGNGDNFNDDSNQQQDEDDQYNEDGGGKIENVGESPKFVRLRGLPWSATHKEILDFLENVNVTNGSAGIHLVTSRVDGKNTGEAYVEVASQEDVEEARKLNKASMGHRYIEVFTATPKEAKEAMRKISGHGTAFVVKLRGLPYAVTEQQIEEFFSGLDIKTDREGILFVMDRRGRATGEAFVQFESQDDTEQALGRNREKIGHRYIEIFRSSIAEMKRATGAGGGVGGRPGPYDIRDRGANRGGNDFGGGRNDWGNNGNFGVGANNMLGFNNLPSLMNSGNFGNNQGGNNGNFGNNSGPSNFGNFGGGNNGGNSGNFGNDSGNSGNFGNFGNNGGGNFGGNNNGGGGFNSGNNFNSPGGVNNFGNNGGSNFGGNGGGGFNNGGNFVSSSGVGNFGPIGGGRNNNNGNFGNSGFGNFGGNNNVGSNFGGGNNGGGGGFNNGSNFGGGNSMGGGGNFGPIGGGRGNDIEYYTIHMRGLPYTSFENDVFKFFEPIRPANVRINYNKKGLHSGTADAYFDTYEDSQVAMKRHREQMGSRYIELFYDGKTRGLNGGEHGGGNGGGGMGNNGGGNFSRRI

These are yes or no findings as the source states them, for the method shown. In cells and extracts the contact can be indirect. Some entries that bind do so weakly or less than the wild type. Where a sequence is shown, tags or fusion partners need not be part of it.

Consider “Drosophila fragile X mental retardation protein (dFMRP), endogenous (from UniProt Q9NFU0 1-684)”, for which the binding entry is on record as “binds” in assay [1], “binds” in assay [2], “no binding” in assay [3] and “binds” in assay [4].
